The results in this text go back to the antibiotic and cytotoxicity screens of Wong et al. (2023).

This is one part of the list.

Assay [1] deals with HSkMC (human skeletal muscle cells). The assay is described as follows: cytotoxicity call (relative viability < 0.9). Conditions: 10 µM.
Assay [2] concerns HepG2. Briefly: cytotoxicity call (relative viability < 0.9). Particulars: 10 µM.
Assay [3] deals with S. aureus RN4220. Briefly: growth inhibition call (relative growth <= 0.2). Particulars: 50 µM.

With `CC(C)NC(=O)N(C)C[C@H]1Oc2ccc(NS(=O)(=O)c3ccc(Cl)cc3)cc2CC(=O)N([C@H](C)CO)C[C@H]1C`, the cytotoxicity call in assay [1] and in assay [2] was “inactive” throughout. Also, the growth inhibition call in assay [3] was “inactive”.

Take `C[C@H]1CN([C@@H](C)CO)C(=O)c2cc(NC(=O)CCN3CCOCC3)ccc2O[C@@H]1CN(C)S(=O)(=O)c1ccc(F)cc1`: the cytotoxicity call in assay [1] and in assay [2] was “inactive” each time. Further, the growth inhibition call in assay [3] is “inactive”.

As for `Cc1ccsc1C=CC1=NCCCN1C.O=C(O)CC(O)(CC(=O)O)C(=O)O`, the cytotoxicity call in assay [1] and in assay [2] was “inactive” each time. The growth inhibition call in assay [3] is “inactive”.

On to `C[C@@H]1CN([C@H](C)CO)C(=O)c2cccc(NC(=O)Nc3ccc(C(F)(F)F)cc3)c2O[C@H]1CN(C)Cc1ccc(C(=O)Nc2ccccc2N)cc1`, for which the cytotoxicity call in assay [1] and in assay [2] was “inactive” in each case. The growth inhibition call in assay [3] was “inactive”.

`C=CCOC(=O)[C@@H]1[C@@H]2C=C[C@]3(O2)[C@H](C(=O)N(CC=C)Cc2ccccc2)N(c2cccc(Cl)c2CO)C(=O)[C@@H]13`: the cytotoxicity call in assay [1] and in assay [2] was “inactive” in each case. Besides, in assay [3], the growth inhibition call was “inactive”.

In the case of `C[C@H](CO)N1C[C@H](C)[C@H](CN(C)Cc2ccccc2)Oc2ccc(NC(=O)Nc3ccc(C(F)(F)F)cc3)cc2CC1=O`, the cytotoxicity call in assay [1] and in assay [2] was “active” in each case. Besides, the growth inhibition call in assay [3] is “inactive”.

For `OC[C@H]1O[C@@H](Nc2ccccn2)[C@@H](O)[C@@H](O)[C@@H]1O`, the cytotoxicity call in assay [1] and in assay [2] was “inactive” in each case. Besides, the growth inhibition call in assay [3] was “inactive”.

For the compound `O=C(Cn1cc(COc2ccc(-n3cccc3)cc2)nn1)NS(=O)(=O)c1ccccc1C(F)(F)F`, the cytotoxicity call in assay [1] and in assay [2] was “inactive” in each case. Moreover, the growth inhibition call in assay [3] is “inactive”.

Consider `C[C@H]1CN([C@@H](C)CO)C(=O)c2cc(NC(=O)NC3CCCCC3)ccc2O[C@H]1CN(C)Cc1ccc(Cl)c(Cl)c1`, for which the cytotoxicity call in assay [1] and in assay [2] was “inactive” each time. In assay [3], the growth inhibition call was “inactive”.

Consider `C[C@H]1CN([C@@H](C)CO)S(=O)(=O)c2ccc(Br)cc2O[C@H]1CN(C)C(=O)Cc1ccncc1`, for which the cytotoxicity call in assay [1] and in assay [2] was “inactive” in each case. Further, the growth inhibition call in assay [3] was “inactive”.

As for `C[C@H]1CN([C@@H](C)CO)C(=O)CCCn2cc(nn2)CO[C@@H]1CN(C)C(=O)c1cc(-c2ccccc2)on1`, the cytotoxicity call in assay [1] and in assay [2] was “inactive” throughout. The growth inhibition call in assay [3] is “inactive”.

In the case of `Cc1noc(C)c1NC(=O)N(C)C[C@@H]1OCCCC[C@H](C)Oc2ccc(NC(=O)Nc3ccc(F)cc3)cc2C(=O)N([C@H](C)CO)C[C@@H]1C`, the cytotoxicity call in assay [1] and in assay [2] was “inactive” throughout. The growth inhibition call in assay [3] is “inactive”.

For the compound `CO[C@H]1C[C@@H]2CC[C@@H](C)[C@@](O)(O2)C(=O)C(=O)N2CCCC[C@H]2C(=O)O[C@H]([C@H](C)C[C@@H]2CC[C@@H](O)[C@H](OC)C2)CC(=O)[C@H](C)/C=C(\C)[C@@H](O)[C@@H](OC)C(=O)[C@H](C)C[C@H](C)/C=C/C=C/C=C/1C`, the cytotoxicity call in assay [1] and in assay [2] was “inactive” throughout. The growth inhibition call in assay [3] was “inactive”.

As for `C[C@H]1CN([C@@H](C)CO)C(=O)c2cc(NC(=O)Nc3ccccc3)ccc2O[C@H]1CN(C)S(C)(=O)=O`, the cytotoxicity call in assay [1] and in assay [2] was “inactive” each time. The growth inhibition call in assay [3] is “inactive”.

Turning to `Cc1c2oc3c(C)ccc(C(=O)N[C@@H]4C(=O)N[C@H](C(C)C)C(=O)N5CCC[C@H]5C(=O)N(C)CC(=O)N(C)[C@@H](C(C)C)C(=O)O[C@@H]4C)c3nc-2c(C(=O)N[C@@H]2C(=O)N[C@H](C(C)C)C(=O)N3CCC[C@H]3C(=O)N(C)CC(=O)N(C)[C@@H](C(C)C)C(=O)O[C@@H]2C)c(N)c1=O`, the cytotoxicity call in assay [1] and in assay [2] was “active” throughout. For the same compound, in assay [3], the growth inhibition call is “inactive”.

As for `C[C@@H]1CN([C@@H](C)CO)C(=O)Cc2cc(NS(=O)(=O)c3cn(C)cn3)ccc2O[C@H]1CN(C)CC1CCCCC1`, the cytotoxicity call in assay [1] and in assay [2] was “inactive” each time. Further, the growth inhibition call in assay [3] is “inactive”.

As to `O=C(C[C@H]1C[C@@H]2c3cc(NC(=O)C4CCOCC4)ccc3O[C@@H]2[C@H](CO)O1)NCc1ccc2c(c1)OCO2`, the cytotoxicity call in assay [1] and in assay [2] was “inactive” throughout. In addition, the growth inhibition call in assay [3] was “inactive”.

As for `Cc1noc(C)c1S(=O)(=O)N(C)C[C@H]1Oc2ccc(NS(=O)(=O)c3ccc(F)cc3)cc2CC(=O)N([C@H](C)CO)C[C@H]1C`, the cytotoxicity call in assay [1] and in assay [2] was “inactive” each time. For the same compound, in assay [3], the growth inhibition call is “inactive”.

Turning to `Cc1ccc(S(=O)(=O)N[C@H]2CC[C@@H](CC(=O)N3CCC(Cc4ccccc4)CC3)O[C@H]2CO)cc1`, the cytotoxicity call in assay [1] and in assay [2] was “inactive” each time. For the same compound, the growth inhibition call in assay [3] was “inactive”.

Take `C[C@@H]1CN([C@H](C)CO)C(=O)c2cccc(NC(=O)C3CC3)c2O[C@@H]1CN(C)S(=O)(=O)c1cn(C)cn1`: the cytotoxicity call in assay [1] and in assay [2] was “inactive” in each case. Further, the growth inhibition call in assay [3] was “inactive”.

As for `COCC#Cc1ccc2c(c1)O[C@@H](CN(C)S(=O)(=O)c1cccc(OC)c1)[C@H](C)CN([C@H](C)CO)S2(=O)=O`, the cytotoxicity call in assay [1] and in assay [2] was “inactive” throughout. Moreover, in assay [3], the growth inhibition call is “inactive”.

`O=C(O)C1CCNCC1`: the cytotoxicity call in assay [1] and in assay [2] was “inactive” each time. Moreover, in assay [3], the growth inhibition call was “inactive”.

For the compound `C[C@H]1CCCCO[C@H](CN(C)Cc2ccc(C(=O)O)cc2)[C@@H](C)CN([C@@H](C)CO)C(=O)c2cc(NC(=O)C3CCCCC3)ccc2O1`, the cytotoxicity call in assay [1] and in assay [2] was “inactive” in each case. Also, the growth inhibition call in assay [3] is “inactive”.

Regarding `O=C(NO)c1cccc(C(=O)N/N=C/[C@H](O)[C@@H](O)[C@H](O[C@@H]2O[C@H](CO)[C@H](O)[C@H](O)[C@H]2O)[C@H](O)CO)c1`, the cytotoxicity call in assay [1] and in assay [2] was “inactive” each time. In assay [3], the growth inhibition call is “inactive”.

Take `C[C@H]1CCC2=C(CCC[C@@]2(C)C(=O)O)[C@@]1(C)CCc1ccoc1`: the cytotoxicity call in assay [1] and in assay [2] was “inactive” throughout. In addition, the growth inhibition call in assay [3] was “inactive”.

For `C[C@@H]1CN([C@@H](C)CO)C(=O)c2cc(NC(=O)NC3CCCCC3)ccc2O[C@@H](C)CCCCO[C@@H]1CN(C)S(=O)(=O)c1ccccc1`, the cytotoxicity call in assay [1] and in assay [2] was “inactive” throughout. In assay [3], the growth inhibition call was “inactive”.

`Cc1cccc(C(=O)N2CCC[C@@H](Cn3cc(C(C)(C)N)nn3)C2)c1C`: the cytotoxicity call in assay [1] and in assay [2] was “inactive” each time. In addition, in assay [3], the growth inhibition call was “inactive”.
